# Experimental data published in PubChem BioAssay AID686979 (National Center for Advancing Translational Sciences (NCATS), 2013).
# Where “and” joins values, the source holds several entries; their conditions need not be identical. Equal values may be shown once. The whole screen tested about 420,000 compounds, of which about 50,000 (12%) were called active. The inconclusive results got no clear call from the source; some entries with a clear call stand among them for comparison. Calls come from the whole dose curve; as a rule, active = well fitted inhibition curve with a large enough effect; inconclusive = small, poorly fitted or top-dose-only effect; inactive = flat fitted curve, though single readings scatter. Potencies of inconclusive entries are doubtful fits and often do not repeat.
# Assay: qHTS for Inhibitors of human tyrosyl-DNA phosphodiesterase 1 (TDP1): qHTS in cells in presence of CPT; note: nearly all actives have a fitted effect of over 55% in size
# Conditions: chicken DT40 Tdp1-/-;hTDP1 cells + 20 nM CPT, ATP luminescence, 48 h; activity change, negative = growth inhibition: at 46.2 µM (top of the series) unless noted
# In short: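 Cell growth measured by CellTiter-Glo luminescence after a minimum 48 h, 37 C compound exposure with 20 nM CPT in Tdp1-knockout DT40 cells stably expressing hTDP1, seeded 400/well; qHTS titration format.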
# % is set by controls: 0 for no effect and ±100 for the full control effect; potency is the fitted concentration of half-maximal effect; tags give direction and shape of the fitted curve.
SMILES,Potency,"activity change, negative = growth inhibition"
OC(CNCC1(N2CCCCC2)CCCCC1)COc1ccc(Cl)cc1Cl (centres undefined),"inconclusive: 29.1 µM [inhibitor, single point]",
CCn1c(=O)cc(OCC(=O)O)c2ccccc21,,inactive: 4.18%
Cc1cc(S(=O)(=O)N2CCCCC2)ccc1OCC(=O)N1CCCC1,,inactive: 2.11%
Cc1ccc(N(CC(=O)NCc2ccc3c(c2)OCO3)C(=O)c2csnn2)cc1,,inactive: -3.57%
CC(C)C[C@@H](CN1CCCC1CN1C(=S)NC[C@@H]1Cc1ccc(O)cc1)N1C[C@H](Cc2ccc(O)cc2)N(CC2CCCCC2)C1=S (some centres undefined),active: 20.6 µM,
CC(=O)c1ccc(NS(=O)(=O)c2cccc3cccnc23)cc1,"inconclusive: 23.1 µM [inhibitor, partial curve]",
CC(C)(C)n1cnc2cc(NC(=O)c3cccs3)ccc21,"inconclusive: 29.1 µM [inhibitor, single point]",
O=C1CN(C(=O)Cc2ccc(F)cc2)C(c2ccccc2)c2cc(Br)ccc2N1 (centres undefined),"inconclusive: 20.6 µM [inhibitor, single point]",
COc1cc(/C=N/NC(=O)c2ccc(CN3c4cccc5cccc(c45)S3(=O)=O)cc2)cc(OC)c1O,"inconclusive: 29.1 µM [inhibitor, single point]",
N=c1ccn(Cc2ccc(F)cc2)cc1,"inconclusive: 16.4 µM [inhibitor, single point]",
Cc1c(/C=N/n2cnnc2)c2ccccc2n1CCOc1ccc(Cl)cc1,"inconclusive: 29.1 µM [inhibitor, single point]",
O=C(NN=Cc1ccc(O)cc1O)c1ccccc1NS(=O)(=O)c1cccs1,"inconclusive: 29.1 µM [inhibitor, single point]",
Cc1ccsc1CN(C)C(=O)CN1C(=O)NC(c2ccccc2)(c2ccccc2)C1=O,"inconclusive: 29.1 µM [inhibitor, single point]",
CN1CCN(C(=S)Nc2ccc(Cl)c(Cl)c2)CC1,,inactive: -8.01%
COC(=O)N1CCC[C@@]2(CCN(Cc3nccs3)C2)C1,,inactive: 13%
CCCCCC(=O)N1CC2(CC(c3cccc(NC(=O)CC(c4ccccc4)c4ccccc4)c3)=NO2)C[C@@H]1C(N)=O (some centres undefined),"inconclusive: 23.1 µM [inhibitor, single point]",
O=C(NCCCn1ccnc1)c1ccncc1,,inactive: 3.29%
Cc1cc(S(=O)(=O)Nc2cccc(Cl)c2)c(C)s1,,inactive: -22%
CC1(C)C=C2C(=NN(c3ccccc3)C(N)=C2C#N)CO1,active: 13 µM,
N#CC(Cc1cccc(CC(C#N)(c2ccccc2)c2ccccc2)c1)(c1ccccc1)c1ccccc1,active: 3.26 µM,
O=C(NCCCO)/C(=C\c1ccco1)NC(=O)c1ccc(Br)o1,,inactive: -10.1%
CN1CCCN(c2ccc([N+](=O)[O-])cc2)CC1,,inactive: -4.26%
O=C(O)C(=Cc1cccc([N+](=O)[O-])c1)c1ccc(Cl)cc1,"inconclusive: 16.4 µM [inhibitor, single point]",

SMILES,Potency,"activity change, negative = growth inhibition"
Cc1ccc(NC(=O)Cn2nc(C)c3nn(-c4ccc(Cl)cc4)c(C)c3c2=O)cc1C,"inconclusive: 18.4 µM [inhibitor, partial curve]",
O=C(NCc1ccccn1)Nc1cccc(Cl)c1,,inactive: -8.99%
Cn1c(=O)oc2cc(S(=O)(=O)N3CCC(C(=O)NCc4ccccc4Cl)CC3)ccc21,inactive,
Cc1ccc2cccc(SCC(=O)Nc3ccc(F)cc3)c2n1,"inconclusive: 29.1 µM [inhibitor, single point]",
O=C(NCc1ccco1)c1cc2n(n1)C(C(F)(F)F)CC(c1ccc(Cl)c(Cl)c1)N2 (centres undefined),"inconclusive: 29.1 µM [inhibitor, single point]",
COc1ccc(S(=O)(=O)N2CCCCCC2)cc1C(=O)N1CCN(c2ccc(F)cc2)CC1,"inconclusive: 29.1 µM [inhibitor, single point]",
CC(C)NC(=O)N1CC2(CCN(C(=O)c3ccncc3)CC2)C1,,inactive: 17.5%
Cc1ccc(CNC(=O)C(=O)NCC2OCCN2S(=O)(=O)c2ccc3c(c2)OCCO3)cc1 (centres undefined),active: 25.9 µM,
COc1cc(-c2nc(CN3CCN(C(=O)c4ccco4)CC3)c(C)o2)ccc1F,,inactive: -26%
O=C(Nc1cc(Sc2ccccn2)cc([N+](=O)[O-])c1)c1ccc([N+](=O)[O-])cc1,"inconclusive: 4.61 µM [inhibitor, full curve, poor fit]",
CC(NC(=O)C1CCCN1C(=O)OC(C)(C)C)C(=O)OCc1ccccc1 (centres undefined),active: 23.1 µM,
CN1CCN(c2ncc3nc(-c4cc(F)cc(F)c4)c(=O)n(CCc4ccccc4)c3n2)CC1,,inactive: 8.43%
CCOc1ccccc1C(=O)OCC(=O)Nc1cccc(S(=O)(=O)NC2=NCCCCC2)c1,"inconclusive: 29.1 µM [inhibitor, single point]",
Cc1ccc(NC(=O)CN2CCC3(O)CCCCC3C2c2ccc3c(c2)OCO3)c(C)c1 (centres undefined),"inconclusive: 29.1 µM [inhibitor, single point]",
COc1cccc(CN(C)C(=S)Nc2cccc(C)c2)c1,"inconclusive: 16.4 µM [inhibitor, partial curve]",
COC(=O)Nc1ccc(S(=O)(=O)N2CCCc3cccc(O)c32)cc1,active: 13 µM,
CC(=O)c1c[nH]c(C(=O)NCc2ccccc2Cl)c1,,inactive: 8.16%
Cc1cccc(C(=O)Nc2cccc(-c3cnc4ccccc4n3)c2)c1,"inconclusive: 11.6 µM [inhibitor, single point]",
Cc1ccc(/C=C/c2onc(C)c2S(=O)(=O)N2CCC(C(=O)NC(C)(C)C)CC2)cc1,"inconclusive: 16.4 µM [inhibitor, single point]",
COc1c2c(c(CCC(=O)O)c3c1C=CC(C)(C)O3)OC(C)(C)C=C2,,inactive: 4.57%
CC1CCC2C(C1)c1sc(=O)[nH]c1SC2(C)C (centres undefined),"inconclusive: 32.6 µM [inhibitor, single point]",
Cc1cccc(N2CCN(C(=O)C3CCC(CNS(=O)(=O)c4ccc(Br)s4)CC3)CC2)c1C (centres undefined),"inconclusive: 2.91 µM [inhibitor, full curve]",
N#CC(C#N)=Cc1cn(-c2ncc(C(F)(F)F)cc2Cl)c2ccccc12,"inconclusive: 29.1 µM [inhibitor, single point]",

SMILES,Potency,"activity change, negative = growth inhibition"
CCOC(=O)c1[nH]c(C)c(CCC(=O)Nc2c(C)cc(C)cc2C)c1C,"inconclusive: 29.1 µM [inhibitor, single point]",
COC(=O)[C@@]12C[C@@H](CC(=O)N3CCOCC3)C(=O)N(Cc3cccc4ccccc34)C1=CCC(C)(C)C2,active: 16.4 µM,
O=C(NCCC1=CCCCC1)c1cc(S(=O)(=O)N2CCOCC2)c(Cl)cc1Cl,"inconclusive: 20.6 µM [inhibitor, single point]",
Cc1ccccc1CNC(=O)c1ccc(Cl)c([N+](=O)[O-])c1,"inconclusive: 29.1 µM [inhibitor, single point]",
Cn1c(SSc2ccc(-c3cccnc3)n2C)ccc1-c1cccnc1,"inconclusive: 29.1 µM [inhibitor, single point]",
C=CCN(C(=O)CN1CCCCC1)c1nc(-c2ccccc2)cs1,"inconclusive: 14.6 µM [inhibitor, partial curve, poor fit]",
O=C(COC(=O)CN1C(=O)C2CCCCC2C1=O)NCc1ccc(Cl)cc1Cl (centres undefined),,inactive: -23.8%
COc1cccc(CCOC(=O)c2c(-c3ccsc3)oc3c2C(OC(C)=O)CCC3)c1 (centres undefined),"inconclusive: 29.1 µM [inhibitor, single point]",
CCCC(=O)c1ccc(N2CCN(S(=O)(=O)c3ccc(C)cc3)CC2)c(F)c1,"inconclusive: 3.66 µM [inhibitor, full curve]",
Cn1c(CN2CCCCC2)nc2cc(NC(=O)c3cccc(Br)c3)ccc21,"inconclusive: 22.4 µM [inhibitor, single point] and inconclusive: 23.1 µM [inhibitor, single point]",
CCCCCN(C(=O)CCC(=O)OCc1ccc(C(C)(C)C)cc1)c1c(N)n(CCCC)c(=O)[nH]c1=O,"inconclusive: 29.1 µM [inhibitor, single point]",
CCc1nnc(NC(=O)c2nc(S(=O)(=O)Cc3cccc(C)c3)ncc2Cl)s1,active: 5.17 µM and active: 5.8 µM,
CCc1nn(CC(=O)NC(C)CCc2ccccc2)c(=O)c2cc3cc(F)ccc3n12 (centres undefined),,inconclusive: -38.3% [inhibitor]
O=C(C1CN(C(=O)c2cc3cc(Cl)ccc3o2)c2ccccc2O1)N1CCCCC1 (centres undefined),"inconclusive: 25.9 µM [inhibitor, single point]",
OC(c1ccccc1)c1ncc(-c2ccc(Cl)cc2)[nH]1 (centres undefined),,inactive: -3.46%
Cc1ccccc1C1CC(=O)Oc2cc(O)ccc21 (centres undefined),,inactive: 4.79%
COc1ccc(/C(N)=N/OC(=O)c2cccc([N+](=O)[O-])c2)cc1,"inconclusive: 18.4 µM [inhibitor, partial curve, poor fit]",
CCCCC(=O)Nc1nc2c(OC)cc([N+](=O)[O-])cc2s1,,inactive: -27.1%
Cc1cnn(-c2cc(Oc3ccccc3)ncn2)c1,,inactive: -4.23%
Cc1onc(-c2c(Cl)cccc2Cl)c1C(=O)N1CCN(c2ccc(F)cc2)CC1,"inconclusive: 29.1 µM [inhibitor, single point]",
CCC(C(=O)Nc1ccccc1C(=O)OC)n1c(C)c2cnn(-c3ccccc3)c(=O)c2c1C (centres undefined),active: 25.9 µM,
CCOC(=O)C1=C(CN2CC(C)CC(C)C2)NC(=O)NC1c1ccc2c(c1)OCO2 (centres undefined),"inconclusive: 29.1 µM [inhibitor, single point]",
CCCc1cc(=O)oc2cc(C)cc(OCC(=O)NCC(O)c3ccccc3)c12 (centres undefined),"inconclusive: 23.1 µM [inhibitor, single point]",
